{
  "source": "patent US20100285145A1",
  "about": "“GPR 119 MODULATORS” (PFIZER INC, priority 2009, published 2010)",
  "target": "T1, human GPR119 (Homo sapiens, UniProt Q8TDV5)",
  "T1 sequence (Q8TDV5 1-335)": "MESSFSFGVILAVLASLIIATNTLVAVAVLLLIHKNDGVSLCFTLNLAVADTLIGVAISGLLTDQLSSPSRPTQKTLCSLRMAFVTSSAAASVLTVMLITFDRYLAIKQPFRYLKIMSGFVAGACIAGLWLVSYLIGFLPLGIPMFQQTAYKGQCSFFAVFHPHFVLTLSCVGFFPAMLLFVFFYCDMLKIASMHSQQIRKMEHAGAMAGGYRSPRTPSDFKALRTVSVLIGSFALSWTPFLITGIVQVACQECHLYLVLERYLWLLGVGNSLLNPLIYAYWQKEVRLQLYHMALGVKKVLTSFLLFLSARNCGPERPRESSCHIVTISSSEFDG",
  "assay": "cAMP HTRF functional assay (hGPR119 HEK-CRE beta-lactamase cells)",
  "assay_type": "cell-based",
  "design": "host or cells: HEK293-CRE beta-lactamase",
  "settings": "percent of maximal activity relative to standard GPR119 agonist at 10 micromolar",
  "experimental": "GPR119 agonist activity was also determined with a cell-based assay utilizing an HTRF (Homogeneous Time-Resolved Fluorescence) cAMP detection kit (cAMP dynamic 2 Assay Kit; Cis Bio cat #62AM4PEC) that measures cAMP levels in the cell. The method is a competitive immunoassay between native cAMP produced by the cells and the cAMP labeled with the dye d2. The tracer binding is visualized by a Mab anti-cAMP labeled with Cryptate. The specific signal (i.e. energy transfer) is inversely proportional to the concentration of cAMP in either standard or sample. […]\nVarying concentrations of each compound to be tested were diluted in assay buffer containing 3-isobutyl-1-methylxanthin (IBMX; Sigma cat #15879) and added to the assay plate wells in a volume of 2 microL (final IBMX concentration was 400 microM and final DMSO concentration was 0.58%). […] The plates were then incubated at room temperature and after 60 minutes, changes in the HTRF signal were read with an Envision 2104 multilabel plate reader using excitation of 330 nm and emissions of 615 and 665 nm. Raw data were converted to nM cAMP by interpolation from a cAMP standard curve (as described in the manufacturer's assay protocol) and EC50 determinations were made from an agonist-response curves analyzed with a curve fitting program using a 4-parameter logistic dose response equation.",
  "note": "Some entries of the source have several records that differ or are many. This list holds those alone. The source may hold further records. The records of an entry read as repeated measurements on other runs, samples or individuals; one of them may be the mean. Signs of the kind (2×) say how often a value occurs here.",
  "data": [
    {"smiles": "CC(C)OC(=O)N1C[C@H]2COC[C@@H](C1)[C@H]2Oc1ncnc(N2CCc3cc(S(C)(=O)=O)ccc32)c1C#N", "note": "[Example 5]", "values": [
      {"measurement": "Intrinsic Activity (Human cAMP)", "result": "103, 98.6, 100 (2×), 82, 98.1% [lines of one column]"}
    ]}
  ]
}
